Over roughly 33,000 sequences, “E-score (-0.5 to 0.5)” has its median near -0.053; the highest 2% begin near 0.37. The list shows a part of the results.

The text below walks through data of the supplement of paper PMC3334620.

The assay addresses Hap1 (UniProt P0CE41). Briefly: PBM E-score (8-mer binding enrichment) (E-score (-0.5 to 0.5)); higher = stronger / more preferred TF binding; most listed sequences are background and not binding sites. The conditions noted are these: protein concentration: 200 nM; construct: GST-DNA-binding domain. Summed up: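 Masliner-normalised scans of fluorescent anti-GST signal were the basis for scoring. That signal came from GST-tagged yeast transcription factors applied at about 100-200 nM to double-stranded universal all-10-mer Agilent arrays on fresh or once-stripped slides. Each ungapped eight-base word, pooled with its reverse complement, received an E-score from the Universal PBM Analysis Suite.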
Chain of UniProt P0CE41 (P0CE41 whole entry, the tested form may be a part): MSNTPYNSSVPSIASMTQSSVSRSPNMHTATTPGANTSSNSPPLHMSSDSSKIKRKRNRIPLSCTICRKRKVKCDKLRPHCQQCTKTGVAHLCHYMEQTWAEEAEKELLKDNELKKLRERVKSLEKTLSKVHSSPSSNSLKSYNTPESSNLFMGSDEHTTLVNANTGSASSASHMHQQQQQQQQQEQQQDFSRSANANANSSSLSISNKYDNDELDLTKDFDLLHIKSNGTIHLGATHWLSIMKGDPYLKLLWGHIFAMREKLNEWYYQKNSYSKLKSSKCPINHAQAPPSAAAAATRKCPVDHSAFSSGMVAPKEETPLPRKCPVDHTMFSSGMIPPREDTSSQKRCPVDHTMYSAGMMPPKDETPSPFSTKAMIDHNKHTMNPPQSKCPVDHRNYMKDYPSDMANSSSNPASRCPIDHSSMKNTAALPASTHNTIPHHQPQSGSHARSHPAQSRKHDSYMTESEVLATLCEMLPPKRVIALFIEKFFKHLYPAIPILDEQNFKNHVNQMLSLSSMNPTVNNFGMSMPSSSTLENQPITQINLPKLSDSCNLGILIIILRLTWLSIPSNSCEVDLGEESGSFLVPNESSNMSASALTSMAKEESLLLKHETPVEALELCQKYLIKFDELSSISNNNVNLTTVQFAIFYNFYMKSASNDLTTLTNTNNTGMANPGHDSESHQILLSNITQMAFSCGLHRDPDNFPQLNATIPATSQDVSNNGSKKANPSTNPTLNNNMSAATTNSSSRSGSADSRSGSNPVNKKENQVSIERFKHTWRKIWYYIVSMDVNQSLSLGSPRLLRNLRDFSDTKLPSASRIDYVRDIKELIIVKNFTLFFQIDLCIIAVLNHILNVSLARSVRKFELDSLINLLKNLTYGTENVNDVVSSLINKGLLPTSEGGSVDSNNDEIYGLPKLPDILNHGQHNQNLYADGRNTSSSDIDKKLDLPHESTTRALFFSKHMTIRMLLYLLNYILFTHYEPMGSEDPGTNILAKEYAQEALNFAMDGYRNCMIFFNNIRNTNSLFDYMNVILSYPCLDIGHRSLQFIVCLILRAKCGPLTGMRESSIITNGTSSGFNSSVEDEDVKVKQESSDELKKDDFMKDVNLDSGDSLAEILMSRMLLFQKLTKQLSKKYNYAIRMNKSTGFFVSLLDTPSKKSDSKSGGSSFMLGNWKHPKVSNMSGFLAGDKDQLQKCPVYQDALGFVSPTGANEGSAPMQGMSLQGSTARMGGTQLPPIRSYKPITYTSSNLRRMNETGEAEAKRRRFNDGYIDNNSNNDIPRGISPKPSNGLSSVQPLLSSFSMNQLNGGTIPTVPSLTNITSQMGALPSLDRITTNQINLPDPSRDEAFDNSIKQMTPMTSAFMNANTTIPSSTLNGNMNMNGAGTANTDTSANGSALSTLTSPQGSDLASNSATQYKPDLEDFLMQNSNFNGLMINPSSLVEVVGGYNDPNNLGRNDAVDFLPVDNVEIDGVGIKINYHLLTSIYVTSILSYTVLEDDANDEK
Take ACGCACTG: the “PBM E-score” value is -0.121.

As to AAAAGACA, the “PBM E-score” value is -0.0875.

As to ATGTCTTG, the “PBM E-score” value amounted to 0.0789.

As to AAGCGAAG, the “PBM E-score” value is -0.0165.

AGTGAATG: the “PBM E-score” value was -0.00975.

With ACAATCAT, the “PBM E-score” value is -0.0714.

As for GCGCAAGA, the “PBM E-score” value is 0.0177.

As to TACGATCA, the “PBM E-score” value is -0.221.

As to CGTGTATA, the “PBM E-score” value is 0.0146.

On to ATAGCGCA, for which the “PBM E-score” value was -0.1.

AGGCGTCC: the “PBM E-score” value amounted to 0.00712.

As to GGCGGAAC, the “PBM E-score” value came to 0.257.

For the sequence CATCCAGC, the “PBM E-score” value is -0.131.

In the case of CCATGGCC, the “PBM E-score” value is -0.0324.

As to AACAAAAG, the “PBM E-score” value is -0.235.

With GAGCTAGA, the “PBM E-score” value is -0.135.

With GACTCTTA, the “PBM E-score” value was -0.0624.

Turning to CCCTGAAC, the “PBM E-score” value was -0.0914.

For the sequence CTCTGAGA, the “PBM E-score” value was -0.351.

Turning to AACATCAT, the “PBM E-score” value is -0.26.

Consider AAGGCCAA, for which the “PBM E-score” value was -0.0718.

With AAGCCCAT, the “PBM E-score” value was -0.143.

On to CCTATTGA, for which the “PBM E-score” value was -0.189.

Take AGACCTAT: the “PBM E-score” value was -0.0653.

Turning to CGGGTCAG, the “PBM E-score” value came out at 0.291.

Regarding CGCGAAAG, the “PBM E-score” value was found to be 0.00498.

CTTACTAA: the “PBM E-score” value was -0.086.

With GATGAGAC, the “PBM E-score” value was -0.0286.

As to CTGCCTTC, the “PBM E-score” value was -0.204.

As to GCTCACCC, the “PBM E-score” value was 0.0163.

For ATTGCCCA, the “PBM E-score” value is -0.202.

For the sequence CTGAGAAG, the “PBM E-score” value is -0.194.

On to GACGGAGA, for which the “PBM E-score” value is 0.318.

Turning to ACTAACCC, the “PBM E-score” value was found to be 0.00848.

As for AGTCATCG, the “PBM E-score” value was -0.0494.

For TCGTGTAA, the “PBM E-score” value is 0.0474.

On to AAATTAAT, for which the “PBM E-score” value is -0.00464.

Regarding TGACGCCA, the “PBM E-score” value is -0.272.

For the sequence CGCCTATA, the “PBM E-score” value stood at 0.184.

Regarding GAGCCGAC, the “PBM E-score” value turned out to be 0.179.

For GCCTTAGA, the “PBM E-score” value was -0.04.

As for CCTACACC, the “PBM E-score” value was -0.037.

For the sequence CATATGGA, the “PBM E-score” value is -0.127.

On to ATTCATAG, for which the “PBM E-score” value was -0.204.

For the sequence GCTTGTAC, the “PBM E-score” value is 0.0904.

On to CAATTGGC, for which the “PBM E-score” value was -0.159.

In the case of CCGGAGCA, the “PBM E-score” value was 0.418.

Take ACCGAACA: the “PBM E-score” value worked out at 0.265.

For TGTACAAA, the “PBM E-score” value was -0.129.

On to AGCTCTGC, for which the “PBM E-score” value was -0.231.

On to AGCTTGCG, for which the “PBM E-score” value is -0.169.

For the sequence AATGTAGA, the “PBM E-score” value was -0.101.

Turning to AGAGTTAG, the “PBM E-score” value was -0.0639.

Take CTGTATAA: the “PBM E-score” value is -0.232.

GACATAGA: the “PBM E-score” value is -0.135.

On to CTCAAAAG, for which the “PBM E-score” value is -0.0673.

On to CGTATGCC, for which the “PBM E-score” value is -0.0351.

For the sequence TACCGCCA, the “PBM E-score” value turned out to be 0.0951.

Take GCGCCAGA: the “PBM E-score” value came to 0.0486.

Turning to TCCATTAA, the “PBM E-score” value came out at 0.0772.

Turning to AAAGTGCG, the “PBM E-score” value turned out to be 0.128.

In the case of GTATCCAC, the “PBM E-score” value is -0.0484.

For the sequence TTAGCAAA, the “PBM E-score” value stood at 0.0428.

ATTGGCAG: the “PBM E-score” value is -0.0447.

In the case of CAGCAAAG, the “PBM E-score” value was -0.158.

Regarding TATCTTGA, the “PBM E-score” value was determined as 0.00716.

Turning to ACGCTGCC, the “PBM E-score” value was -0.00621.

AAACAATA: the “PBM E-score” value was 0.172.

Regarding GTCTCGAA, the “PBM E-score” value was -0.271.

With AGTCTCTC, the “PBM E-score” value was -0.0978.

With GAAACCAC, the “PBM E-score” value is -0.0824.

As for ACGTGCAA, the “PBM E-score” value is -0.0353.

GTTACGAA: the “PBM E-score” value was -0.0267.

As for CAGCCCGC, the “PBM E-score” value amounted to 0.04.

Regarding GACTAGAC, the “PBM E-score” value was -0.274.

In the case of CAAACACG, the “PBM E-score” value came out at 0.0351.

For TGCGCTAA, the “PBM E-score” value was -0.0418.

For GCCGTTCC, the “PBM E-score” value amounted to 0.0668.

ACCTCCCG: the “PBM E-score” value was found to be 0.136.

TATCTGCA: the “PBM E-score” value was -0.16.

With AATCCGGT, the “PBM E-score” value was found to be 0.418.

For the sequence CGATGGCG, the “PBM E-score” value turned out to be 0.135.

CAGGGGAC: the “PBM E-score” value is -0.0585.

On to TACAAGGA, for which the “PBM E-score” value was -0.0632.

GGCTCCTA: the “PBM E-score” value was -0.0347.

In the case of AAATTCTT, the “PBM E-score” value is -0.0993.
